The values that follow come from PubChem BioAssay AID1347073 (National Center for Advancing Translational Sciences (NCATS), 2019).

Among all 45,000 compounds or so, about 200 (0.44%) were called active. Inconclusive results (about 7%) are left out. Calls follow the shape of the dose curve; as a rule, active = well fitted activation curve with a large enough effect; inconclusive = small, poorly fitted or top-dose-only effect; inactive = no such curve, though single readings can be large or run the other way. This is one part of the list.

The assay can be described thus: qHTS of TDP-43 Inhibitors: NCGC Sytravon Library Screen. Also: 0% is about no effect; nearly all actives have a fitted effect of over 55% in size. As to conditions: yeast TDP-43 toxicity rescue, BacTiter-Glo growth, 24 h; series mostly up to 46.1 µM; growth rescue (activation): at the top concentration. The method, boiled down: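 TDP-43-expressing yeast, pregrown in raffinose, seeded at OD600 0.02 in galactose medium with compound for 24 hr at 30 deg C. Growth read by BacTiter-Glo luminescence, so rescue of toxicity appears as activation.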
Background: Quantitative high-throughput screening tests each substance at several concentrations.
As for `O=C(NCCNC(=O)c1ccco1)c1ccco1`, the “growth rescue (activation)” value was inactive: 13.8%.

`O=C1CCCc2oc3c(cc(NS(=O)(=O)c4ccc5c6c(cccc46)C(=O)N5)c4ccccc43)c21`: the “growth rescue (activation)” value was inactive: 22.3%.

`O=c1cc(CN2CCCc3ccccc32)nc2sccn12`: the “growth rescue (activation)” value was inactive: -11.4%.

Regarding `CC(C)(C)c1ccc(COn2ccnc2)cc1`, the “growth rescue (activation)” value is inactive: -2.4%.

With `Cc1cc(C(=O)CN2C(=O)NC3(CCCCCC3)C2=O)c(C)n1C`, the “growth rescue (activation)” value is inactive: -13.9%.

As for `Cc1cc(C(C)(C)C)oc1C(=O)O`, the “growth rescue (activation)” value was inactive: 28%.

Take `O=C(/C=C/c1cccc([N+](=O)[O-])c1)NCCSCc1ccco1`: the “growth rescue (activation)” value was inactive: 25.3%.

For `O=C(CCS(=O)(=O)Cc1ccccc1)Nc1nnc(C(F)(F)F)s1`, the “growth rescue (activation)” value was inactive: 9.99%.

As to `CC1(C)Oc2ccc3ccc(=O)oc3c2/C(=C/NNC(N)=S)C1=O`, the “growth rescue (activation)” value was inactive: 8.67%.

With `COc1ccc(C(=O)N[C@H](C(=O)Nc2ccc(OC)nc2)C(C)C)cc1`, the “growth rescue (activation)” value was inactive: 10.7%.

For the compound `O=C(NC(=S)Nc1ccc(Br)cc1F)C1CCCCC1`, the “growth rescue (activation)” value was inactive: -1.27%.

Turning to `CN(C)c1ccc(NC(=O)Nc2ccc3c(c2)c(=O)n(C)n3Cc2ccccc2)cc1`, the “growth rescue (activation)” value was inactive: -6.18%.

With `Cc1ccc2c(Cl)cc(Cl)c(OCC(=O)NC3CCS(=O)(=O)C3)c2n1` (stereo not given), the “growth rescue (activation)” value is inactive: -2.78%.

Turning to `CCC(=O)N1CCN(c2ccc(NC(=O)c3ccc(C#N)cc3F)cc2Cl)CC1`, the “growth rescue (activation)” value is inactive: 0.999%.

`CCCc1cc(CNC(=O)C2CCC(=O)N(Cc3ccccc3F)C2)on1` (stereo not given): the “growth rescue (activation)” value is inactive: -4.06%.

As to `Cc1ccc(-n2nnnc2SCC(=O)Nc2ccccc2N2CCCCC2)cc1C`, the “growth rescue (activation)” value is inactive: 20.8%.

In the case of `CCOc1ccccc1NC(=O)Cn1nnc(C(=O)Nc2ccccc2Cl)c1N`, the “growth rescue (activation)” value was inactive: -2.2%.

As for `O=C(COc1ccccc1Cl)NCCNC(=O)c1ccncc1`, the “growth rescue (activation)” value is inactive: -13.7%.

As for `CCCc1nc2ccc(NC(=O)c3cccs3)cc2c(=O)n1Cc1ccccc1Cl`, the “growth rescue (activation)” value was inactive: 10.2%.

Take `CCc1cccc(CC)c1NC(=O)CNCc1cccs1`: the “growth rescue (activation)” value is inactive: -11.7%.

Regarding `CN1C(=O)/C(=C/c2ccc(OCc3ccc(F)cc3)cc2)NC1=S`, the “growth rescue (activation)” value was inactive: 13.7%.

As to `O=C(CSc1nnc(-c2ccncc2)n1Cc1ccco1)Nc1ccccc1F`, the “growth rescue (activation)” value was inactive: -15.6%.

`Cc1cc(C)cc(NC(=O)C2C3C=CC4(O3)C2C(=O)N(CCCN2CCCCC2)C4C(=O)NC2CCCCC2)c1` (stereo not given): the “growth rescue (activation)” value was inactive: 13.5%.

With `O=C1CCCN1C(=O)CSc1nnnn1-c1cccc(F)c1`, the “growth rescue (activation)” value is inactive: -1.63%.

With `COc1ccc(OCC(=O)N/N=C(\C)CC(=O)Nc2ccc(OC)cc2[N+](=O)[O-])cc1`, the “growth rescue (activation)” value was inactive: -4.54%.

Consider `Cc1cc(C)n(-c2nnc(NCc3ccc(Cl)cc3)nn2)n1`, for which the “growth rescue (activation)” value is inactive: 22.8%.

For `O=C(NNC(=O)C1CCCCC1)c1ccco1`, the “growth rescue (activation)” value is inactive: -6.9%.

On to `CCOC(=O)c1cc(NCc2cccs2)ccc1N1CCOCC1`, for which the “growth rescue (activation)” value was inactive: 20.2%.

As to `CCC(=O)N1CCc2cc(Br)cc(S(=O)(=O)NCCN3CCCC3)c21`, the “growth rescue (activation)” value is inactive: 2.31%.

As to `O=C(NCCCN1CCOCC1)C(=O)NCc1ccccc1Cl`, the “growth rescue (activation)” value was inactive: 3.28%.

For the compound `O=C1c2ccccc2NC(c2cccc(O)c2)N1c1ccccc1` (stereo not given), the “growth rescue (activation)” value was inactive: 6.43%.

`CSc1ccccc1C(=O)NCCCn1ccnc1`: the “growth rescue (activation)” value was inactive: -4.64%.

In the case of `CCOC(=O)c1cc(-c2ccccc2)n(CC(=O)Nc2ccc(OC)cc2)c1C`, the “growth rescue (activation)” value is inactive: 20%.

As for `Cc1cc(S(=O)(=O)NCc2cccnc2)ccc1F`, the “growth rescue (activation)” value is inactive: 2.54%.

Regarding `Cc1cccc(N(CC(=O)N2CCN(C)CC2)S(=O)(=O)c2ccccc2)c1`, the “growth rescue (activation)” value was inactive: -5.47%.

For `CCCCCCCC(=O)N1c2ccccc2NC(=O)C1CC(=O)Nc1ccc(C(=O)O)cc1` (stereo not given), the “growth rescue (activation)” value was inactive: -8.51%.

Consider `CC(NC(=O)c1ccc(S(=O)(=O)N(C)C)cc1)c1ccc(-n2ccnc2)cc1` (stereo not given), for which the “growth rescue (activation)” value was inactive: -6.41%.

As for `NC(Cc1ccc(C(F)(F)F)cc1)c1csc(NC(=O)Nc2ccccc2Cc2ccccc2)n1` (stereo not given), the “growth rescue (activation)” value was inactive: 15.2%.

For the compound `CCCCOc1ccc(C(=O)N/C(=C/C=C/c2ccccc2)C(=O)NCCO)cc1`, the “growth rescue (activation)” value is inactive: 2.01%.

Turning to `CCOC(=O)Cn1ccc(NC(=O)COc2ccc(F)cc2)n1`, the “growth rescue (activation)” value was inactive: 9.55%.

In the case of `CCOC(=O)c1nn(-c2ccccc2)c(C#N)c1N`, the “growth rescue (activation)” value was inactive: -7.6%.

For `Cc1ccc(-n2c(CSc3nc(C)cc(C)n3)nnc2SCC(=O)Nc2nccs2)cc1`, the “growth rescue (activation)” value is inactive: 3.39%.

`Cc1nc(N2CCCCC2)c(C#N)c(C)c1[N+](=O)[O-]`: the “growth rescue (activation)” value was inactive: 7.03%.

For `CC1(C)CC(O)C(CCC(O)c2ccccc2)C(C)(C)N1` (stereo not given), the “growth rescue (activation)” value was inactive: -12.4%.

Regarding `COc1cc(CNc2ncnc3c2ncn3[C@H]2CN(CCc3ccccc3)C[C@@H](CO)O2)cc(OC)c1OC`, the “growth rescue (activation)” value is inactive: -11.1%.

For the compound `COC(=O)CNC(=O)C(Cc1c[nH]c2ccccc12)NC(=O)Oc1ccccc1` (stereo not given), the “growth rescue (activation)” value was inactive: 16.7%.

Take `COC(=O)Cn1ncc2c3ccccc3n(C)c2c1=O`: the “growth rescue (activation)” value is inactive: 22%.

With `CCOC(=O)C1CCCN(C(=O)c2ccc(Cl)c(S(=O)(=O)N3CCCCC3)c2)C1` (stereo not given), the “growth rescue (activation)” value is inactive: 13.8%.

As to `CCN(CCn1cccn1)C(=O)c1cc(COc2ccccc2SC)on1`, the “growth rescue (activation)” value was inactive: 29.3%.

As for `COc1ccc(/C=C/C(=O)Nc2ccccc2C(F)(F)F)cc1`, the “growth rescue (activation)” value was inactive: 18.7%.

On to `CCCCC(=O)N(C)c1c(CC)nc2c(OCCC)cccn12`, for which the “growth rescue (activation)” value is inactive: 2.64%.

Regarding `CN(C)c1ccc(C(=S)Nc2ccccc2)cc1`, the “growth rescue (activation)” value was inactive: 35.2%.

Take `COC(=O)[C@@H]1CCCN1Cc1c(C(=O)N2CCCCC2)nc2c(C)cccn12`: the “growth rescue (activation)” value is inactive: 1.82%.

Take `Cc1ccc(C(C)C)c(OCC(=O)NN=C2CCCC(=O)C2)c1`: the “growth rescue (activation)” value is inactive: 18.6%.

For `CC1CC(C)CN(C(=S)NC2CCCCC2)C1` (stereo not given), the “growth rescue (activation)” value was inactive: -3.68%.
